Test results published in PubChem BioAssay AID485281 (National Center for Advancing Translational Sciences (NCATS), 2010).
Out of some 350,000 compounds screened, about 260 (0.074%) were called active. Inconclusive means that the source gave no clear call. Such entries were picked first, then a sample of the others. Calls come from the whole dose curve; as a rule, active = well fitted inhibition curve with a large enough effect; inconclusive = small, poorly fitted or top-dose-only effect; inactive = no such curve, though single readings can be large or run the other way. A potency beside an inconclusive call is a rough fit, not a confirmed value.

Biological target: Ferritin light chain (Equus caballus) (UniProt P02791)
Sequence of UniProt P02791 (P02791 whole entry, looked up): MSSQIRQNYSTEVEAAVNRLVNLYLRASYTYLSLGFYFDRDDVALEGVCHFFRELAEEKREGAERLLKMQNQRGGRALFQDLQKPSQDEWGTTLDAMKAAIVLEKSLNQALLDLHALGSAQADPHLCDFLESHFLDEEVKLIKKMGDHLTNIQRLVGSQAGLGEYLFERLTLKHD
Experiment: qHTS Assay for Identification of Novel General Anesthetics; note: nearly all actives have a fitted effect of over 20% in size
Details: apoferritin/1-aminoanthracene competitive binding, fluorescence; activity change, negative = displacement: at 77.5 µM (top of the series)
Summary of the method: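 10 uM apoferritin + 50% sat. 1-AMA, PBS; cpd 10 min RT; Ex380/Em535 endpoint; normalized to free probe vs complex; 4-param Hill fit; propofol titration as pos. ctrl.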
% is set by controls: 0 for no effect and ±100 for the full control effect; potency is the fitted concentration of half-maximal effect; tags give direction and shape of the fitted curve.

Structure (SMILES) | activity change, negative = displacement | Potency
CCOC(=O)c1sc(C)c2c1NC(C)(c1ccccc1)NC2=O (stereo not drawn) | inactive: -13.4% | 
Cc1cccc(NC(=O)CS(=O)CC(=O)Nc2cnc3ccccc3c2)c1C (stereo not drawn) |  | inconclusive: 39.8 µM [inhibitor, single point]
Cc1nc(SCc2cccc(Oc3ccccc3)c2)n[nH]1 |  | inconclusive: 20 µM [inhibitor, partial curve]
O=C1C(Cl)=C(NCCN2CCOCC2)C(=O)c2ncccc21 |  | inactive
COc1ccc(Oc2ncnc3sccc23)cc1 | inactive: -10.1% | 
O=C(N/N=C/c1ccc(O)cc1)/C(=C/c1ccc([N+](=O)[O-])cc1)NC(=O)c1ccccc1 |  | inconclusive: 12.6 µM [inhibitor, partial curve]
CC12CC3CC(C)(C1)CC(C(=O)NC(=S)N1CCOCC1)(C3)C2 |  | inconclusive: 35.5 µM [inhibitor, partial curve]
COc1ccc(CCNC(=S)NC(=O)/C=C/c2ccc(C)cc2)cc1OC |  | inconclusive: 28.2 µM [inhibitor, partial curve]
COc1ccc(N2CCN(C(=O)CSc3nnc4c(C)cc5ccc(C)c(C)c5n34)CC2)cc1 | inactive: 1.96% | 
O=C(Nc1cccc(S(=O)(=O)N2CCCCC2)c1)c1ccc(S(=O)(=O)C(F)F)cc1 | inactive: -19.4% | 
Cc1ccc(Cl)cc1NC(=O)C(C)n1nc(-c2ccccc2)ccc1=O (stereo not drawn) |  | inconclusive: 31.6 µM [inhibitor, partial curve]
Cc1ccccc1OCCNC(=O)CSc1ccc(C(F)(F)F)cc1[N+](=O)[O-] |  | inconclusive: 50.1 µM [inhibitor, single point]
CC1CC(C)CN(C(=O)C2CCN(S(=O)(=O)N3CCC4(CC3)OCCO4)CC2)C1 (stereo not drawn) | inactive: 6.34% | 
O=C(C1CCCN(Cc2ccccc2[N+](=O)[O-])C1)N1CCCCC1 (stereo not drawn) | inactive: 4.49% | 
COc1ccc(C[C@@](C)(N)C(=O)O)cc1OC | inactive: 12.9% [at 29.3 µM] | 
Cc1cc(C)c(C(=O)c2ccc(C(=O)NC(C)(C)C)cc2)c(C)c1 |  | inconclusive: 35.5 µM [inhibitor, partial curve]
CCCC(=O)Oc1ccc(C2NC(=O)c3ccccc3O2)cc1OC (stereo not drawn) |  | inconclusive: 31.6 µM [inhibitor, single point]
CC(=O)Nc1c(O)nc(SCC(=O)Nc2nnc(SCc3ccccc3)s2)[nH]c1=O |  | inconclusive: 28.2 µM [inhibitor, single point]
O=C(Nc1ccccc1)OCc1cncs1 |  | inconclusive: 17.8 µM [inhibitor, partial curve]
COC(=O)CC1C(=O)NCCN1Cc1cn(-c2ccc(C)cc2)nc1-c1cccc(C)c1 (stereo not drawn) |  | inconclusive: 31.6 µM [inhibitor, partial curve]
CCC1CO/C(=C(\C(Cl)=C(Cl)Cl)[N+](=O)[O-])N1 (stereo not drawn) |  | inconclusive: 31.6 µM [inhibitor, single point]
CCC(=Nc1ccc(N)cc1)C1=C(O)C(C(=O)OC)C(C)(C)CC1=O (stereo not drawn) | inactive: 218% | 
Cc1ccccc1CN1CCC(CNc2ncnc3onc(-c4ccc(F)cc4)c23)CC1 | inactive: 40.7% | 
Cc1ccc(NC(=O)COC(=O)CCC(=O)c2cccs2)cc1C |  | inconclusive: 14.1 µM [inhibitor, partial curve]

Structure (SMILES) | activity change, negative = displacement | Potency
Clc1ccc(-c2nc3sccn3c2/C=N/OCc2ccc(Cl)c(Cl)c2)cc1 |  | inactive
CCc1cccc(-n2nnc(-c3nsc(NC(=O)c4cccs4)n3)c2C)c1 |  | inconclusive: 2.24 µM [inhibitor, full curve]
Cc1ccc(S(=O)(=O)N2CCN(CCc3ccccc3)CC2)c(C)c1 | inactive: 1.3% | 
Cc1ccc2[nH]c(=O)c(CN(Cc3ccccc3)Cc3nnnn3C3CCCC3)cc2c1 |  | inconclusive: 3.55 µM [inhibitor, full curve, poor fit]
O=C(COc1ccc(OCc2ccccc2)cc1)NN=C1CCCC1 |  | inconclusive: 15.8 µM [inhibitor, partial curve]
COc1ccc(C(=O)Nc2ccc(Nc3ccccc3)cc2)cc1[N+](=O)[O-] |  | inconclusive: 14.1 µM [inhibitor, partial curve]
Cc1ccc2c(CC(=O)Nc3ccc(S(=O)(=O)N4CCCCC4)cc3)coc2c1 |  | inconclusive: 3.16 µM [inhibitor, partial curve]
CSc1nncc(-c2ccc(F)cc2)n1 |  | inconclusive: 31.6 µM [inhibitor, partial curve]
CCCOc1ccc(N2C(=O)CC(N(Cc3ccccc3)N=O)C2=O)cc1 (stereo not drawn) | inactive: -10.1% | 
COc1ccc(CCNC(=O)c2coc(=O)c(Br)c2)cc1 | inactive: 1% | 
Cc1ccc(NC(=O)NC(=O)N(C2CCCCC2)S(=O)(=O)c2ccccc2)cc1 |  | inconclusive: 39.8 µM [inhibitor, partial curve]
Cc1cc(C)n(S(=O)(=O)c2ccc(Cl)cc2)n1 | inactive: -13.7% | 
CN(C)c1ccc(-c2nn3c(-c4ccccc4Cl)nnc3s2)cc1 | inactive: -0.253% | 
NS(=O)(=O)c1cccnc1Nc1cccc(Cl)c1Cl |  | inconclusive: 25.1 µM [inhibitor, partial curve]
O=c1cc(-c2ccccc2[N+](=O)[O-])oc2ccccc12 |  | inconclusive: 35.5 µM [inhibitor, single point]
CCn1c(CNC(=O)c2cccs2)nnc1SCC(=O)Nc1cc(Cl)ccc1C |  | inconclusive: 28.2 µM [inhibitor, partial curve]
COc1ccc(S(=O)(=O)c2cnc3ccccc3n2)cc1 | inactive: -6.96% | 
O=C(O)c1ccc(NC(=O)c2ccc(Br)c(S(=O)(=O)N3CCCC3)c2)cc1 | inactive: -5.24% | 
CCC(=O)N(CC)C1=C(O)c2ccccc2C(=O)C1=O | inactive: -19.4% | 
CCCC12CN3CC(C)(CN(C1)C3c1ccc(OCc3ccccc3)cc1)C2=O (stereo not drawn) | inactive: 6.74% | 
Cc1cc(C(=O)CSc2ccc(F)cc2)cc(C)c1OC(=S)N(C)C |  | inconclusive: 39.8 µM [inhibitor, partial curve]
CCc1ccc(/C=N/NC(=O)c2nnn(-c3nonc3N)c2C(C)C)cc1 | inactive: -15.9% | 
O=C(Nc1ccc(Cl)cc1)c1cc(S(=O)(=O)NC2CCCCCC2)ccc1F |  | inconclusive: 8.91 µM [inhibitor, full curve]
Cc1ccc(/C=c2\sc3n(c2=O)CN(c2ccc(Br)cc2)CN=3)o1 |  | inconclusive: 28.2 µM [inhibitor, single point]
